# Laboratory results as given in PMC4007767.
# Chains of the proteins cited; added tags and fusions are not shown.
# UniProt A5D8V6: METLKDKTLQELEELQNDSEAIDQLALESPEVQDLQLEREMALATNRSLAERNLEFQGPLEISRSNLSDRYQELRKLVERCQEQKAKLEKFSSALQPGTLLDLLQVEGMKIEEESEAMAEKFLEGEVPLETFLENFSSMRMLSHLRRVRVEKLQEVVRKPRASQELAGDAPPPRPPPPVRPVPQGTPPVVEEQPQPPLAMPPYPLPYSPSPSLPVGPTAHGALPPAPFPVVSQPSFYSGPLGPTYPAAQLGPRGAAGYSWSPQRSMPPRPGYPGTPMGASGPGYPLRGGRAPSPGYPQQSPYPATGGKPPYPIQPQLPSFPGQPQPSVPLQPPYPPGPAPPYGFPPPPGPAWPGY
# UniProt Q99816: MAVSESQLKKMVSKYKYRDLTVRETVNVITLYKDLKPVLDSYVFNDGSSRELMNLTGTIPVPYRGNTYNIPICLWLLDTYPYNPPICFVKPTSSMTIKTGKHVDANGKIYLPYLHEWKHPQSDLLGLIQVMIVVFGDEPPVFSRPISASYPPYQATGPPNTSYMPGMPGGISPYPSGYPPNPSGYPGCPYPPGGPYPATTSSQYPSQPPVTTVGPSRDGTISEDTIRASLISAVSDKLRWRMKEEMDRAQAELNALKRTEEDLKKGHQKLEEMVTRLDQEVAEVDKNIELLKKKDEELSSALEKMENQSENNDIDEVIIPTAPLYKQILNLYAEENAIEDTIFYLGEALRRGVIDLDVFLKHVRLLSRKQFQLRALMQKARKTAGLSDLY
# No constants are given. Whether binding was seen depends on the method and setting. Binding seen in cells or lysates may run through a third protein. Some entries that bind do so weakly or less than the wild type. For some of these results: Tags and fused reporters may be left off the sequences shown.
# T1: Flag–VPS37A (in vitro translated, full length) (human), Q8NEZ2
# T1 chain: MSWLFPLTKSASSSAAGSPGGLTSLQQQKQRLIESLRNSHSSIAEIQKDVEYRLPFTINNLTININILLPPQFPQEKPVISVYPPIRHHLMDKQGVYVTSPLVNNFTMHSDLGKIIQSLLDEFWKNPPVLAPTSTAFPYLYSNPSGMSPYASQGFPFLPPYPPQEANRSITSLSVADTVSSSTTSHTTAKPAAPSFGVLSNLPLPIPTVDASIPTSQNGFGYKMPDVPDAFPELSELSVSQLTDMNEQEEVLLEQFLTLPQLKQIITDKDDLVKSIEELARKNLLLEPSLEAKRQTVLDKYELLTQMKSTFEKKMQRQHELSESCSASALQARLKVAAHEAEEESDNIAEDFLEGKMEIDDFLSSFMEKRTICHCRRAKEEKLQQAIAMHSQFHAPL
# How the values were obtained:
# [1] = target: Flag–VPS37C (in vitro translated) (human) (UniProt A5D8V6); test: co-IP; 35S-labelled ESCRT-I subunits co-translated in rabbit reticulocyte lysate, diluted tenfold in 10 mM Tris-HCl pH 7.4, 150 mM NaCl, 1 mM EDTA, 0.1% Triton X-100; IP of HA–TSG101 with anti-HA agarose overnight; SDS-PAGE and phosphoimaging
# [2] = target: T1, Flag–VPS37A (in vitro translated, full …); test: co-IP; as a7, but no HA–TSG101 in the translation mix (Fig. 5A lane 13); the antibody used is not given; details: remark: other sources report otherwise
# [3] = target: Flag–VPS37A (in vitro translated, full length) (human) (UniProt Q8NEZ2); test: co-IP; 35S-labelled ESCRT-I subunits co-translated in rabbit reticulocyte lysate, diluted tenfold in 10 mM Tris-HCl pH 7.4, 150 mM NaCl, 1 mM EDTA, 0.1% Triton X-100; IP of HA–TSG101 with anti-HA agarose overnight; SDS-PAGE and phosphoimaging
# [4] = target: HA–TSG101 (in vitro translated) (human) (UniProt Q99816); test: as above
binder,measurement,setting,value
"UBAP1(UMA) (amino acids 1–63, in vitro translated) (domain or fragment, UniProt Q9NZ09 1-63, 35S-methionine label) MASKKLGADFHGTFSYLDDVPFKTGDKFKTPAKVGLPIGFSLPDCLQVVREVQYDFSLEKKTI",binding,[1],binds
"VPS28–Myc (in vitro translated), Q9UK41 1-221 (protein, here or on the partner: 35S-methionine label; 35S-methionine label) MFHGIPATPGIGAPGNKPELYEEVKLYKNAREREKYDNMAELFAVVKTMQALEKAYIKDCVSPSEYTAACSRLLVQYKAAFRQVQGSEISSIDEFCRKFRLDCPLAMERIKEDRPITIKDDKGNLNRCIADVVSLFITVMDKLRLEIRAMDEIQPDLRELMETMHRMSHLPPDFEGRQTVSQWLQTLSGMSASDELDDSQVRQMLFDLESAYNAFNRFLHA",binding,[2],no binding
"UBAP1 predicted helix region alone (in vitro translated) (domain or fragment, UniProt Q9NZ09 44-95, 35S-methionine label) DCLQVVREVQYDFSLEKKTIEWAEEIKKIEEAEREAECKIAEAEAKVNSKSG",binding,[3],no binding
same,binding,[4],no binding
